Results taken from the supplement of paper PMC8728848.
This is one part of the list.

Assays:
Test in all cases: glycan array binding signal (z-score within array); higher = stronger binding
Settings in all cases: glycan notation: IUPAC condensed, linker removed
[1] = target: Fuc(a1-3)[Gal(b1-4)]GlcNAc(b1-2)Man(a1-6)[Gal(b1-4)GlcNAc(b1-2)Man(a1-3)]Man(b1-4)GlcNAc(b1-4)GlcNAc
How it was run: (§1)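 Columns mapping to the same glycan were averaged after glycan names were converted to IUPAC-condensed notation. The data come from 3228 arrays in the Consortium for Functional Glycomics database, limited to those with an available protein sequence. Binding is reported as a within-array Z-score averaged across arrays of one protein sequence and across linkers.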

[2] = target: Fuc(a1-3)[Gal(b1-4)]GlcNAc(b1-3)Gal(b1-3)[Fuc(a1-4)]GlcNAc
How it was run: as §1

[3] = target: Fuc(a1-3)[Gal(b1-4)]GlcNAc(b1-4)Gal(b1-4)[Fuc(a1-3)]GlcNAc
How it was run: as §1

[4] = target: Fuc(a1-3)[Gal(b1-4)]GlcNAc(b1-4)Gal(b1-4)[Fuc(a1-3)]GlcNAc(b1-4)Gal(b1-4)[Fuc(a1-3)]GlcNAc
How it was run: as §1

[5] = target: Fuc(a1-3)[Gal(b1-4)]GlcNAc6S
How it was run: as §1

[6] = target: Fuc(a1-3)[Gal3S(b1-4)]Glc6S
How it was run: as §1

[7] = target: Fuc(a1-3)[Gal3S(b1-4)]GlcNAc
How it was run: as §1

[8] = target: Fuc(a1-3)[Gal3S(b1-4)]GlcNAc6S
How it was run: as §1

[9] = target: Fuc(a1-3)[GalNAc(b1-4)]GlcNAc
How it was run: as §1

Fuc(a1-4)GlcNAc = target: Fuc(a1-4)GlcNAc
How it was run: as §1

Fuc(b1-3)GlcNAc = target: Fuc(b1-3)GlcNAc
How it was run: as §1

Gal(a1-2)Gal = target: Gal(a1-2)Gal
How it was run: as §1

Gal(a1-3)Gal = target: Gal(a1-3)Gal
How it was run: as §1

Gal(a1-3)Gal(b1-3)GlcNAc = target: Gal(a1-3)Gal(b1-3)GlcNAc
How it was run: as §1

Gal(a1-3)Gal(b1-4)Glc = target: Gal(a1-3)Gal(b1-4)Glc
How it was run: as §1

Gal(a1-3)Gal(b1-4)GlcNAc = target: Gal(a1-3)Gal(b1-4)GlcNAc
How it was run: as §1

[10] = target: Gal(a1-3)Gal(b1-4)[Fuc(a1-3)]GlcNAc
How it was run: as §1

Gal(a1-3)GalNAc = target: Gal(a1-3)GalNAc
How it was run: as §1

[11] = target: Gal(a1-3)[Gal(a1-4)]Gal(b1-4)GlcNAc
How it was run: as §1

Gal(a1-4)Gal(b1-4)Glc = target: Gal(a1-4)Gal(b1-4)Glc
How it was run: as §1

Gal(a1-4)Gal(b1-4)GlcNAc = target: Gal(a1-4)Gal(b1-4)GlcNAc
How it was run: as §1

Gal(a1-4)GlcNAc = target: Gal(a1-4)GlcNAc
How it was run: as §1

Gal(a1-6)Glc = target: Gal(a1-6)Glc
How it was run: as §1

Gal(b1-2)Gal = target: Gal(b1-2)Gal
How it was run: as §1

Gal(b1-3)Gal = target: Gal(b1-3)Gal
How it was run: as §1

Gal(b1-3)Gal(b1-4)GlcNAc = target: Gal(b1-3)Gal(b1-4)GlcNAc
How it was run: as §1

Gal(b1-3)GalNAc = target: Gal(b1-3)GalNAc
How it was run: as §1

[12] = target: Gal(b1-3)GalNAc(b1-3)Gal(a1-4)Gal(b1-4)Glc
How it was run: as §1

[13] = target: Gal(b1-3)GalNAc(b1-4)Gal(b1-4)Glc
How it was run: as §1

[14] = target: Gal(b1-3)GalNAc(b1-4)[Neu5Ac(a2-3)]Gal(b1-4)Glc
How it was run: as §1

Gal(b1-3)GlcNAc = target: Gal(b1-3)GlcNAc
How it was run: as §1

[15] = target: Gal(b1-3)GlcNAc(b1-2)Man(a1-3)[Gal(b1-3)GlcNAc(b1-2)Man(a1-6)]Man(b1-4)GlcNAc(b1-4)GlcNAc
How it was run: as §1

[16] = target: Gal(b1-3)GlcNAc(b1-3)Gal(b1-3)GlcNAc
How it was run: as §1

[17] = target: Gal(b1-3)GlcNAc(b1-3)Gal(b1-4)Glc
How it was run: as §1

[18] = target: Gal(b1-3)GlcNAc(b1-3)Gal(b1-4)GlcNAc
How it was run: as §1

[19] = target: Gal(b1-3)[Fuc(a1-4)]GlcNAc
How it was run: as §1

[20] = target: Gal(b1-3)[Fuc(a1-4)]GlcNAc(b1-3)Gal(b1-3)[Fuc(a1-4)]GlcNAc
How it was run: as §1

[21] = target: Gal(b1-3)[Fuc(a1-4)]GlcNAc(b1-3)Gal(b1-4)GlcNAc
How it was run: as §1

B1: Regenerating Gene I (Homo sapiens), P05451 (protein)
chain: MAQTSSYFMLISCLMFLSQSQGQEAQTELPQARISCPEGTNAYRSYCYYFNEDRETWVDADLYCQNMNSGNLVSVLTQAEGAFVASLIKESGTDDFNVWIGLHDPKKNRRWHWSSGSLVSYKSWGIGAPSSVNPGYCVSLTSSTGFQKWKDVPCEDKFSFVCKFKN
- glycan array binding signal (z-score) [1]: -0.109
- glycan array binding signal (z-score) [2]: -0.332
- glycan array binding signal (z-score) [3]: -0.391
- glycan array binding signal (z-score) [4]: 0.355
- glycan array binding signal (z-score) [5]: 1.18
- glycan array binding signal (z-score) [6]: 0.607
- glycan array binding signal (z-score) [7]: 0.5
- glycan array binding signal (z-score) [8]: 0.245
- glycan array binding signal (z-score) [9]: 0.315
- glycan array binding signal (z-score) (Fuc(a1-4)GlcNAc): -0.468
- glycan array binding signal (z-score) (Fuc(b1-3)GlcNAc): -0.496
- glycan array binding signal (z-score) (Gal(a1-2)Gal): 0.089
- glycan array binding signal (z-score) (Gal(a1-3)Gal): 0.326
- glycan array binding signal (z-score) (Gal(a1-3)Gal(b1-3)GlcNAc): -0.393
- glycan array binding signal (z-score) (Gal(a1-3)Gal(b1-4)Glc): -0.129
- glycan array binding signal (z-score) (Gal(a1-3)Gal(b1-4)GlcNAc): -0.132
- glycan array binding signal (z-score) [10]: 0.318
- glycan array binding signal (z-score) (Gal(a1-3)GalNAc): -0.284
- glycan array binding signal (z-score) [11]: -0.405
- glycan array binding signal (z-score) (Gal(a1-4)Gal(b1-4)Glc): 3.58
- glycan array binding signal (z-score) (Gal(a1-4)Gal(b1-4)GlcNAc): 0.01
- glycan array binding signal (z-score) (Gal(a1-4)GlcNAc): 0.102
- glycan array binding signal (z-score) (Gal(a1-6)Glc): -0.497
- glycan array binding signal (z-score) (Gal(b1-2)Gal): 0.166
- glycan array binding signal (z-score) (Gal(b1-3)Gal): -0.516
- glycan array binding signal (z-score) (Gal(b1-3)Gal(b1-4)GlcNAc): -0.433
- glycan array binding signal (z-score) (Gal(b1-3)GalNAc): -0.1
- glycan array binding signal (z-score) [12]: -0.12
- glycan array binding signal (z-score) [13]: -0.379
- glycan array binding signal (z-score) [14]: -0.468
- glycan array binding signal (z-score) (Gal(b1-3)GlcNAc): 0.467
- glycan array binding signal (z-score) [15]: -0.203
- glycan array binding signal (z-score) [16]: -0.535
- glycan array binding signal (z-score) [17]: -0.316
- glycan array binding signal (z-score) [18]: -0.537
- glycan array binding signal (z-score) [19]: -0.509
- glycan array binding signal (z-score) [20]: -0.396
- glycan array binding signal (z-score) [21]: -0.543
